Experimental data taken from PubChem BioAssay AID1347073 (National Center for Advancing Translational Sciences (NCATS), 2019).
About 200 (0.44%) of roughly 45,000 compounds were called active. Roughly 7% stayed inconclusive and do not appear here. Calls come from the whole dose curve; as a rule, active = well fitted activation curve with a large enough effect; inconclusive = small, poorly fitted or top-dose-only effect; inactive = no such curve, though single readings can be large or run the other way. This is one part of the list.

Assay: qHTS of TDP-43 Inhibitors: NCGC Sytravon Library Screen; note: 0% is about no effect; nearly all actives have a fitted effect of over 55% in size
Conditions: yeast TDP-43 toxicity rescue, BacTiter-Glo growth, 24 h; series mostly up to 46.1 µM; growth rescue (activation): at the top concentration
Summary of the method: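 TDP-43-expressing yeast, pregrown in raffinose, seeded at OD600 0.02 in galactose medium with compound for 24 hr at 30 deg C. Growth read by BacTiter-Glo luminescence, so rescue of toxicity appears as activation.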

Structure (SMILES) | growth rescue (activation)
O=C(/C=C/c1cc([N+](=O)[O-])ccc1OC(F)F)Nc1cccc(OC(F)F)c1 | inactive: -24.5%
c1ccc(CSCCc2ccncc2)cc1 | inactive: -33.9%
Cc1ccc(S(=O)(=O)NCCC(=O)Nc2cc(S(=O)(=O)N(C)C)ccc2C)cc1C | inactive: 1.28%
CCN(CC)C(=O)Cn1nnc(-c2ccc(S(C)(=O)=O)cc2)n1 | inactive: -16%
Cc1ccc(NC(=O)N2CCCC2C(=O)Nc2nnc(C(C)C)s2)cc1 (stereo not drawn) | inactive: 6.55%
CCOC(=O)C1CCN(C(=O)/C=C/c2cc(OC)c(OC)c(OC)c2)CC1 | inactive: 20.1%
O=C1/C(=C/c2ccc(F)cc2)SC(=S)N1N1CCOCC1 | inactive: 0.728%
O=C(CNCc1ccccc1)NCCCN1CCCC1=O | inactive: -8.74%
CC(C)C(NC(=O)c1ccc(Cl)cc1Cl)C(=O)N1CCN(S(=O)(=O)c2ccccc2)CC1 (stereo not drawn) | inactive: 10.8%
O=[N+]([O-])c1ccc(C(O)CN2CCOCC2)cc1 (stereo not drawn) | inactive: 17.5%
COc1ccc(CC(=O)NCC(=O)Nc2ccccc2Br)cc1 | inactive: -1.05%
CCOC(=O)c1c(NC(C)=O)sc(C(=O)NC2CCCC2)c1C | inactive: 20.3%
COc1ccc(-c2cc(C(=O)NCc3cccc(C(F)(F)F)c3)[nH]n2)c(C)c1 | inactive: -4.89%
COc1ccc(NC(=O)c2oc3ccc(S(=O)(=O)N4CCOCC4)cc3c2C)c(OC)c1 | inactive: 22.1%
Cc1cccc(NC(=O)NCC(c2cccnc2)N2CCOCC2)c1 (stereo not drawn) | inactive: 24.2%
Cn1c(C(=O)N[C@@H](C(=O)O)c2ccccc2)cc2cc(Cl)ccc21 | inactive: 7.73%
c1ccc(CCC2=NCCn3cccc32)cc1 | inactive: -24%
CN(CC(=O)Nc1cccc(C(F)(F)F)c1)C1=NS(=O)(=O)c2ccccc21 | inactive: 24.6%
CN(C)CCCn1c(SCC(=O)Nc2nc(-c3cccc(Br)c3)cs2)nc2ccccc2c1=O | inactive: 32.1%
CCn1c(=O)c(C(=O)CN2CCN(S(=O)(=O)c3cc(C)ccc3C)CC2)c(N)n(Cc2ccccc2)c1=O | inactive: -2.07%
N#Cc1c(-c2ccccc2)nc(SCC(=O)Nc2nnc(C(F)(F)F)s2)[nH]c1=O | inactive: -14.6%
O=C(CNCc1ccc(F)cc1)Nc1ccc(C(=O)N2CCCCC2)cc1 | inactive: 7.74%
CCN(CC)S(=O)(=O)c1ccc(C(=O)N(c2ccc(C)cc2)C2C=CS(=O)(=O)C2)cc1 (stereo not drawn) | inactive: -2.73%
N#Cc1ccc(COc2cccnc2[N+](=O)[O-])cc1 | inactive: 7.07%
CCN1CCN(c2ccc(S(=O)(=O)N3CCOCC3)cc2NC(=O)c2cccc([N+](=O)[O-])c2)CC1 | inactive: 10.3%
CC(C)=CC(=O)OCC(=O)Nc1cc([N+](=O)[O-])ccc1F | inactive: 12.3%
COc1ccc2cc(S(=O)(=O)n3cnc(C)c3)ccc2c1 | inactive: 19.3%
CC(=O)c1ccc(-c2cnc3c(NC=O)cc(-c4ccc(S(C)(=O)=O)cc4)cn23)cc1 | inactive: 0.985%
